Test results taken from PubChem BioAssay (NCATS).
This list was built around the results that the source calls inconclusive (neither active nor inactive); the mix of calls is not that of the screen. For some of these results: Potencies of inconclusive entries are doubtful fits and often do not repeat. For some of these results: A note “side channel” means that the fit belongs to a control or component signal, not to the main read-out. Calls of active or inactive are those of the source. Unless noted, the call rests on the fitted dose curve; in most records, active means well fitted curve in either direction with a large enough effect (not every such curve was filed as active); inconclusive means small, poorly fitted or top-dose-only effect, or another doubt; inactive means flat fitted curve, though single readings scatter.

Assays:
[1] = AP1 Signaling Pathway (AID 357); conditions: ME-180 AP-1-bla reporter, EGF-induced, beta-lactamase ratio, 5 h; at 17.2 µM (top of the series) unless noted;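 further: ME-180 reporter cells stimulated with EGF at its EC50 level; top concentration of the series differs between compounds; on the % scale 0 is the no-effect control and ±100 the full control effect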
How it was run: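 Read-out was the 460nm/530nm emission ratio (excitation 405nm) after CCF4 loading for 2.5 hours at room temperature. Cells carried an AP-1-driven beta-lactamase reporter, were stimulated with EC50 EGF plus compound for 5 hours, and AC50 values came from titrations.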

[2] = NFAT Signaling Pathway (AID 444); conditions: Jurkat NFAT-bla M1, carbachol, beta-lactamase ratio, 5 h; at 17.2 µM (top of the series) unless noted;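 further: carbachol stimulus at about its EC50 of 1 µM final; on the % scale 0 is the no-effect control and ±100 the full control effect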
How it was run: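 Read-out: CCF4 FRET ratio (460 nm/530 nm) after 1 h RT dye loading, used for %activity and AC50 from titration series. Cells: Jurkat NFAT-β-lactamase/M1 line, treated with compound plus 1 uM carbachol for 5 h, 37 °C.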

[3] = Stat Signaling Pathway (AID 446); conditions: ME-180 SIE beta-lactamase reporter, IL-6 stimulated, 5 h; at 7.69 µM (top of the series) unless noted;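 further: ME-180 cervical cancer cells given 40 pM IL-6 alongside compound; SIE-controlled beta-lactamase reporter measured as 460/530 nm FRET emission ratio; top concentration of the series differs between compounds; on the % scale 0 is the no-effect control and ±100 the full control effect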
How it was run: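 Overnight-plated ME-180 cells bearing a STAT Inducible Element beta-lactamase reporter; 5 h co-exposure to compound and 40 pM IL-6; values normalized to 300 pM IL-6 and 125 nM JAK inhibitor controls.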

[4] = qHTS Assay for Identification of Small Molecule Agonists for Hypoxia Response Element Signaling Pathway (AID 914; active means well fitted activation curve with a large enough effect in the signal ratio, with a control signal flat, not every such curve was filed as active; inconclusive means small, poorly fitted or top-dose-only effect, or effect the other way, or a change in a side signal; the % refers to the signal ratio; further: potency means the concentration at half of the fitted maximal effect); conditions: ME-180 (cervical carcinoma) HRE-bla reporter, beta-lactamase ratio, CoCl2, 17 h; activation: active compounds read high
How it was run: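 A beta-lactamase reporter under hypoxia response element control in ME-180 cells served as the system. Compound titrations plus EC50 CoCl2 ran 17 h at 37 degrees Celsius; AC50 values were fitted from %Activity.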

[5] = molecular target: Ubiquitin carboxyl-terminal hydrolase 1 (Homo sapiens) (UniProt O94782); assay: Inhibitors of USP1/UAF1: Pilot qHTS (AID 504865; active means well fitted curve in the direction sought with a large enough effect; inconclusive means small, poorly fitted or top-dose-only effect, or another doubt; inactive means no such curve, though single readings can be large; an effect the other way counts as inactive or inconclusive; further: potency means the concentration at half of the fitted maximal effect;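 further: rhodamine fluorescence freed from ubiquitin-rhodamine substrate followed over time; nearly all actives have a fitted effect of over 35% in size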; on activity change, negative = inhibition: top concentration of the series differs between compounds; on the % scale 0 is the no-effect control and ±100 the full control effect)
How it was run: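 1nM USP1/UAF1 + cpd, 15 min RT; start w/ Ub-Rho 150nM final; kinetic FL 480/540 nm, 6 reads q60 s. Buffer 50mM HEPES pH 7.8, 0.5mM EDTA, 1mM TCEP, 0.01% Tween-20, 0.1 mg/ml BSA.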

[6] = system: 7G8; assay: qHTS profiling for inhibitors of Plasmodium falciparum proliferation (AID 504749; active means well fitted curve in the direction sought with a large enough effect; inconclusive means small, poorly fitted or top-dose-only effect, or another doubt; inactive means no such curve, though single readings can be large; an effect the other way counts as inactive or inconclusive;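 further: 0% = DMSO vehicle and full inhibition = artemisinin control; nearly all actives have a fitted effect of over 60% in size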); conditions: P. falciparum in erythrocytes, SYBR Green DNA, 72 h; series mostly up to 28.7 µM
How it was run: (§1)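 SYBR Green fluorescence of parasite DNA, read after lysis and overnight dark incubation, measured growth over 72 h in erythrocyte culture at 0.3% parasitemia and 2.5% hematocrit. Data normalised to DMSO and 0.29 uM artemisinin, with plate-drift correction.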

[7] = system: ATS189; assay: as above; conditions: P. falciparum in erythrocytes, SYBR Green DNA, 72 h; series mostly up to 28.7 µM
How it was run: as §1

[8] = system: CP191; assay: as above; conditions: P. falciparum in erythrocytes, SYBR Green DNA, 72 h; series mostly up to 12.8 µM
How it was run: as §1

[9] = system: CP203; assay: as above; conditions: P. falciparum in erythrocytes, SYBR Green DNA, 72 h; series mostly up to 28.7 µM
How it was run: as §1

[10] = system: P94_40; assay: as above; conditions: P. falciparum in erythrocytes, SYBR Green DNA, 72 h; series mostly up to 28.7 µM
How it was run: as §1

[11] = system: PAD; assay: as above; conditions: P. falciparum in erythrocytes, SYBR Green DNA, 72 h; series mostly up to 28.7 µM
How it was run: as §1

[12] = system: PC26; assay: as above; conditions: P. falciparum in erythrocytes, SYBR Green DNA, 72 h; activity, negative = inhibition: at 28.7 µM (top of the series)
How it was run: as §1

[13] = molecular target: Glucocorticoid receptor (Homo sapiens) (UniProt P04150); assay: GR-GFP Redistribution (AID 450;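 active means compounds whose dose series gives a full or clear partial fitted curve of increased nuclear translocation; inconclusive means weak partial curve or effect only at the top dose; inactive means no dose-dependent translocation response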; further: potency means the concentration at half of the fitted maximal effect); conditions: U2OS GR-GFP nuclear translocation, laser cytometry, 2 h
[14] = molecular target: Mitogen-activated protein kinase 10 (Mus musculus) (UniProt Q61831); assay: JNK3 AlphaScreen Assay (AID 530); conditions: JNK3 lysate, c-Jun phosphorylation; activity change, negative = inhibition: at 57.1 µM (top of the series);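 further: kinase came from lysate of stimulated human HepG2 cells; signal reports phosphorylation of biotinylated GST-cJun 1-79 at Ser73 with 10 µM ATP; potency means the concentration at half of the fitted maximal effect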
How it was run: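 qHTS titrations with 15 min compound pre-incubation before adding ATP (10 uM final). Read-out: AlphaScreen of Ser73-phosphorylated biotin-GST-cJun using HepG2 lysate JNK3 activated by IL-1β and TNFα.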

[15] = molecular target: Cytochrome P450 3A4 (Homo sapiens) (UniProt P08684); assay: qHTS Assay for Inhibitors and Substrates of Cytochrome P450 3A4 (AID 884; active means well fitted curve in the direction sought with a large enough effect; inconclusive means small, poorly fitted or top-dose-only effect, or another doubt; inactive means no such curve, though single readings can be large; an effect the other way counts as inactive or inconclusive; further: potency means the concentration at half of the fitted maximal effect; nearly all actives have a fitted effect of over 50% in size)
How it was run: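 Luminescent readout of luciferin produced by CYP3A4 (20 nM) dealkylation of Luciferin-PPXE, 25 uM (its KM). NADPH-driven reaction ran 60 min at RT after 10 min compound preincubation; data scaled to 57 uM ketoconazole as 100% inhibition.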
Tags describe the fitted curve by direction and shape or compound fluorescence and quenching.

UniProt P04150, sequence (P04150 whole entry, looked up): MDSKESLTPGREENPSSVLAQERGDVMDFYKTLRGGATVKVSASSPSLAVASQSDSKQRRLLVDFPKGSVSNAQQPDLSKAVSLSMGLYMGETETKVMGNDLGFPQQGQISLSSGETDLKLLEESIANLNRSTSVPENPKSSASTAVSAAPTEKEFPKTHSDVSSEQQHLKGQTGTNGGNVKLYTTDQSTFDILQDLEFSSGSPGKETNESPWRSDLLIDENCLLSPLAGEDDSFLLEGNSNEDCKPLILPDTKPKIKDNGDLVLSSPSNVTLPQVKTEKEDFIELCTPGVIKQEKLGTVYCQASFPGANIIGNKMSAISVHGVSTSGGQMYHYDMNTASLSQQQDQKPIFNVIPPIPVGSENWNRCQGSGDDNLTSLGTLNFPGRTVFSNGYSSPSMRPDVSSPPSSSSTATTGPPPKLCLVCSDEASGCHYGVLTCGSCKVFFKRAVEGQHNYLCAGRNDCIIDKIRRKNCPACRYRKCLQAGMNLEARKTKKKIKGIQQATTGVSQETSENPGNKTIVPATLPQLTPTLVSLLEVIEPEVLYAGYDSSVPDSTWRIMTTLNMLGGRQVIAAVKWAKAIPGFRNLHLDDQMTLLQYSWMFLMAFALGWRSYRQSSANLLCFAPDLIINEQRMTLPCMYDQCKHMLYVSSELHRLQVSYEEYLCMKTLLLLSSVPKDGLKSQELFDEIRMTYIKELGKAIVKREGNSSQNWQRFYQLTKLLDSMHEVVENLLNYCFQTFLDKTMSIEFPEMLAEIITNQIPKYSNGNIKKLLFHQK
UniProt O94782, sequence (O94782 whole entry, looked up): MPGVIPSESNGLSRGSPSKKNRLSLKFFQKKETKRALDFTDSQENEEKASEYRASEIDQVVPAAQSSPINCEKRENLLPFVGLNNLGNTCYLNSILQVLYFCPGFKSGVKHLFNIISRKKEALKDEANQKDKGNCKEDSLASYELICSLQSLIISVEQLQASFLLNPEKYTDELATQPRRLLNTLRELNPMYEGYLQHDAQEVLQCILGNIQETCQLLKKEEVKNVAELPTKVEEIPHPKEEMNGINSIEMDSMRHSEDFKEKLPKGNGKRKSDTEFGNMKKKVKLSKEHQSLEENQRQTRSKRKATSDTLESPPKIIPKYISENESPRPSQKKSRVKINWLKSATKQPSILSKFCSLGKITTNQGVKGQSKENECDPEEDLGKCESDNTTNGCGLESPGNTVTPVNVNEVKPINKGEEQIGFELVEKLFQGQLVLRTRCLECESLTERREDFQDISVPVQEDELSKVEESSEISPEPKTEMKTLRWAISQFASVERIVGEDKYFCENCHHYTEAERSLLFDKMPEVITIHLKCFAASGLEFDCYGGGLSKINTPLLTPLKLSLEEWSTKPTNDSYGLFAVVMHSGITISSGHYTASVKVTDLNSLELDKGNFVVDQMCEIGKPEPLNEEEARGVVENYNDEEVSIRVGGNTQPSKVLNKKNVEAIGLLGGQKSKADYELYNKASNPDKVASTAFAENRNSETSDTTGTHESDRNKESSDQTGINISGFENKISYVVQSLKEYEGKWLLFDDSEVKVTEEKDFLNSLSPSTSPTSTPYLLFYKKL
UniProt P08684, sequence (P08684 whole entry, looked up): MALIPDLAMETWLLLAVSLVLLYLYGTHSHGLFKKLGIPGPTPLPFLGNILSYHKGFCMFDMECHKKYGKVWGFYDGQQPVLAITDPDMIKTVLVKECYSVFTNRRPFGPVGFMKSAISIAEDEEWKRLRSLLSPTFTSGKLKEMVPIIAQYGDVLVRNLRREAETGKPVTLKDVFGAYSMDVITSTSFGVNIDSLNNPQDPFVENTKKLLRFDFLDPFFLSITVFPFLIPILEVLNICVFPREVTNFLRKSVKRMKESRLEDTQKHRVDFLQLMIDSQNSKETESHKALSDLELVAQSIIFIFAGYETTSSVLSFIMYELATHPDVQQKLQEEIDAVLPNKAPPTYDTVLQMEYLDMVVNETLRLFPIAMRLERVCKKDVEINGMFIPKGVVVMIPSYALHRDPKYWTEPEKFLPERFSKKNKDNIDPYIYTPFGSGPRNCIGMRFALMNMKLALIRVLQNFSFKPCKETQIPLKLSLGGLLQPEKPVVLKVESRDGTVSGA

Cn1c(N2CCN(c3ccccn3)CC2)nc2c1c(=O)n(Cc1ccc(Cl)cc1)c(=O)n2C
inconclusive: activity change, negative = inhibition [1] -84.1% [inhibitor] | activity change, negative = inhibition [2] -66% [inhibitor] | activity, negative = inhibition [3] -60.8% [inhibitor] [at 17.2 µM]

COc1ccc(C(=O)c2sc(NC(C)C)nc2N)cc1OC
inconclusive: activity change, negative = inhibition [1] -81.1% [inhibitor] | activity change, negative = inhibition [2] -34.5% [inhibitor] | activity, negative = inhibition [3] -52.3% [inhibitor] [at 17.2 µM]

Cc1csc(NC(=O)CSc2nsc(SCC(=O)Nc3nc(C)cs3)c2C#N)n1
inconclusive: activity change, negative = inhibition [1] -59% [inhibitor] | activity change, negative = inhibition [2] -85.6% [inhibitor] | activity, negative = inhibition [3] -61.7% [inhibitor] [at 17.2 µM]

Nc1ncnc2c([C@@H]3O[C@@H](CO)[C@H](O)[C@@H]3O)nsc12
inconclusive: activity change, negative = inhibition [1] -110% [inhibitor] [at 7.69 µM] | activity change, negative = inhibition [2] -67.6% [inhibitor] [at 7.69 µM] | activity, negative = inhibition [3] -94.6% [inhibitor]

CC1(C)S[C@@H]2[C@H](NC(=O)[C@@H](N)c3ccccc3)C(=O)N2[C@H]1C(=O)O[C@H]1OC(=O)c2ccccc21
inconclusive: activity change, negative = inhibition [1] -36.3% [inhibitor] | activity change, negative = inhibition [2] -47.2% [inhibitor] | activity, negative = inhibition [3] -32.4% [inhibitor] [at 17.2 µM] | Potency [4] 5.01 µM [inhibitor, full curve, poor fit] | Potency [5] 10 µM [inhibitor, partial curve, poor fit]
inactive: Potency [6] | Potency [7] | Potency [8] | Potency [9] | Potency [10] | Potency [11] | Potency [12]

COc1ccc(-n2c(=O)c(-c3ccc(Cl)cc3)nc3cnc(N4CCNCC4)nc32)cc1
inactive: Potency [5]
inconclusive: activity change, negative = inhibition [1] 168% [activator] [at 7.69 µM] | activity change, negative = inhibition [2] 174% [activator] [at 7.69 µM] | activity, negative = inhibition [3] 195% [activator] | Potency [13] 7.2 µM [single point] | Potency [14] 20 µM [activator, partial curve] | Potency [4] 3.16 µM [fluorescent, side channel]

Cn1c(NCc2ccccc2)nc2c1c(=O)n(Cc1ccc(Br)cc1)c(=O)n2C
inconclusive: activity change, negative = inhibition [1] -50.8% [inhibitor] | activity change, negative = inhibition [2] -37.8% [inhibitor] | activity, negative = inhibition [3] -58.4% [inhibitor] [at 17.2 µM]

COc1cccc(-c2nc(NC(C)(C)C)c3ccccc3n2)c1O
inconclusive: activity change, negative = inhibition [1] -45.6% [inhibitor] | activity change, negative = inhibition [2] -81.8% [inhibitor]
active: activity, negative = inhibition [3] -74.9% [at 17.2 µM]

C=C1C2(C(=O)Nc3nccs3)CCC(C2)C1(C)C (stereo not given)
inactive: activity change, negative = inhibition [1] -7.92% | activity change, negative = inhibition [2] 25.1% | activity, negative = inhibition [3] -0.516% [at 17.2 µM]

O=C1/C(=C/c2ccccc2)[C@@H](NC2CCCCC2)c2ccccc21
inconclusive: activity change, negative = inhibition [1] -50.9% [inhibitor] [at 7.69 µM] | activity change, negative = inhibition [2] -59.8% [inhibitor] [at 7.69 µM] | activity, negative = inhibition [3] -47.4% [inhibitor] | Potency [13] 35.6 µM [single point] | Potency [15] 3.98 µM [inhibitor, partial curve] | Potency [4] 3.16 µM [inhibitor, single point]

CSc1nc(N)nc(SCC(=O)C23CC4CC(CC(C4)C2)C3)c1C#N
inconclusive: activity change, negative = inhibition [1] -41.2% [inhibitor] | activity change, negative = inhibition [2] -115% [inhibitor] | activity, negative = inhibition [3] -50% [inhibitor] [at 17.2 µM]

Fc1ccc2[nH]c3c(N4CCN(Cc5ccc6c(c5)OCO6)CC4)ncnc3c2c1
inconclusive: activity change, negative = inhibition [1] -48.3% [inhibitor] | activity change, negative = inhibition [2] -84.8% [inhibitor] | activity, negative = inhibition [3] -43.5% [inhibitor] [at 17.2 µM]

O=S(=O)(c1ccccc1)N1CCC[C@@]2(CCN(Cc3cc(C(F)(F)F)cc(C(F)(F)F)c3)C2)C1
inconclusive: activity change, negative = inhibition [1] 37.8% [activator] [at 7.69 µM] | activity change, negative = inhibition [2] -51.1% [inhibitor] [at 7.69 µM] | activity, negative = inhibition [3] 3.21% [activator]
